Assay results reported in the RNAGym collection of RNA variant scans (doi:10.7554/elife.90254).
Read counts are not given, so values of variants with three or more changes are uncertain.

B1: LINE1-mini (parent)
chain: GGCAGAGCUCAACACAGCGUGGCAAAGUGGCUGUGGCUAGACUGCC

Variants of: B1
Test: self-cleavage, relative activity (ratio to wild type); higher = more cleavage; in vitro, sequencing; the parent is a self-cleaving ribozyme

Variant	self-cleavage
G2A C23U U32C C37A G40A	0.34
G2A C10U C13G A14U A16C	0.04
G2A G5U G17C C18G A25C	0.08
G2A C15U G21U G33C	0.02
G2A C15A G29A C31A	0.23
G2A G5U A12C A14C G21C G44A C46U	0.02
G2A C31A U32G	0.25
G2A C15G G29C U32G A39U G44U C45G	0.03
G2A C23A C37U	0.15
G2A C31A G40U	0.04
G2A C18A C23U	0.24
G2A C10U C13A G22U G36U	0.12
G2A C15A U34C A41C	0.03
G2A C10A G21U	0.17
G2A G5U C42U	0.11
G2A C13A A24G G40A	0.36
G2A C13U G27C	0.24
G2A C13G G29C G40U	0.05
G2A G7A A41G U43C C46G	0.23
G2A C15A G33U	0.32
G2A C31U C37U	0.14
G2A G5A C13A U28G U43A	0.35
G2A C23A U34A	0.19
G2A C18G G29U	0.07

Variant	self-cleavage
G2A C18A A25C	0.36
G2A G5U C10U A16U G21C G30U	0.07
G2A C10U U32A G44U C46U	0.1
G2A C13A C23A A25G A26U	0.25
G2A C15A U28G	0.12
G2A G5C C10A C45G	0.05
G2A G5A C18A	0.19
G2A C18A U28C C45U	0.66
G2A G5U G29A	0.18
G2A C10G G40C	0.05
G2A C10U G30C	0.08
G2A C18A C31A	0.05
G2A G7A U20C A41U	0.2
G2A C18G G27U G30A C31A	0.5
G2A C18G G29A A41C C42U	0.13
G2A G5A G19U A24G G40U	0.23
G2A G5A A11C A24G U43G	0.01
G2A G5A C10A G29A U38G	0.05
G2A C10U U20A G29U C46G	0.35
G2A C23A A41C	0.07
G2A C13U G19A C42U	0.39
G2A C10G G35U C46A	0.03
G2A G5U A26C	0.58
G2A C13U C31G	0.13

Variant	self-cleavage
G2A C37U G44C	0.06
G2A G7A U20A A26U	0.23
G2A C13A A39C	0.25
G2A C10G G33A A39G A41G	0.01
G2A C10A G17C A41C	0
G2A C10G G27C U28A	0.03
G2A C18U C37A	0.87
G2A G5U C8A G44U	0.19
G2A C10U C31G	0.11
G2A G5C C10U C13U G35U U38G	0.03
G2A G5C A6U C15A G27A U38A	0.12
G2A G5U A6U C15A G17A U43A C46G	0.14
G2A G5U C8A C10A A41C	0.08
G2A C10A C46U	0.1
G2A C10A G40A	0.04
G2A G5C G7U U32A	0.17
G2A C10G G27U G44U	0.17
G2A C10A G44U	0.08
G2A G5U C10G G19U C42U	0.03
G2A G5A G19A U20A C31A C46G	0.1
G2A C23G C31A	0.12
G2A C31U C45A	0.11
G2A C18U G21C A24U G30A	1.04
G2A C10U C13U U32C G35U C42A	0.06

Variant	self-cleavage
G2A C15U A16G U38A C45U	0.69
G2A C10A G21U A26G	0.02
G2A C13A C23A U34C G36A	0.4
G2A C23G G27C G30U C37G	0.01
G2A G7A C8G G22U	0.35
G2A G5U C13A G29A G30U C37G	0.14
G2A C13G U20G	0.15
G2A G7A U43C	0.37
G2A G5A A24C G27U G30U	0.23
G2A G7A C18G G22A G40A C45A C46G	0.28
G2A C10G G19U C23U G33U	0.04
G2A C10U A14G	0.07
G2A G5A C13G A25G	0.4
G2A C15A G22U A25U U28G A41C	0.04
G2A C10U G27U U32G	0.05
G2A C13U C15G G21U C46A	0.54
G2A G5C A16G U20C A41U C42A	0.05
G2A G5A U32C	0.28
G2A C13U G19U G22U	0.42
G2A C31U G35U A41U	0.02
G2A C18U G19A G30A	2.45
G2A C10U G36U G40C	0.04
G2A G5U U9G G29U	0.15
G2A G5U C13G G19U G22A U32A C46U	0.06

Variant	self-cleavage
G2A C10U U20C G22U	0.06
G2A C18G C23A	0.95
G2A C13A C15G U20A	0.04
G2A C13G A16C C18U G22A A24U C37A U38A C46U	0.06
G2A G5A U9C U32A	0.05
G2A G5A A6C G21C A39C C42U U43G	0.13
G2A G5C C37A	0.03
G2A C13U U38A C45G	1.43
G2A C13A C18U	0.24
G2A C13U U28G U32C	0.08
G2A C42G C45A	0.15
G2A C15G G29U	0.04
G2A C13U G21U G33A U38C A41G C42U	0.16
G2A G5U A11C	0.04
G2A G7A G21U	0.34
G2A C15A A39U C42A C45G	0.17
G2A C15A A16G G22U	0.06
G2A C23U U38C A41G	0.22
G2A C13U G35A U38A	0.89
G2A G7A U9C U28A C31A G36C U38A	0
G2A C13U U32G	0.12
G2A G5C A16U	0.08
G2A C18A C31A C37A C46G	0.08
G2A C18U C23U G27U C31U	0.03

Variant	self-cleavage
G2A C15U G19A G27U G35C C42U	0.05
G2A G5C G22U A39U U43C	0.02
G2A C10A G29U U32A C37U G40U	0.01
G2A C23G G35U	0.15
G2A C42A C45U	1.73
G2A C10U G33C	0.05
G2A C13A G30A	0.53
G2A C23G A24C	0.35
G2A C15U G22U C31A	0.09
G2A C13G G29A	0.08
G2A C13A C42A	0.17
G2A C10A U20C C42U	0.02
G2A C15G A24U A41C	0.01
G2A C15G G17C	0.05
G2A G5C A14U G27A U34A	0.11
G2A G5C G27A	0.08
G2A C23U A24U G30U	0.21
G2A G5A C23A G35C	0.44
G2A G5U G7C U28A G35C A41C	0.02
G2A C23A G44C	0.71
G2A C23A U28C	0.17
G2A C10A G21A G44U	0.23
G2A C15G G30A U38A	0.01
G2A C15U U20C G40U	0.4

Variant	self-cleavage
G2A G7A G17U C46G	0.26
G2A C15G C31U C37G U38G	0.01
G2A G7C A11G G19C G22U C23G	0.02
G2A C18G U28G G44A	0.12
G2A C13U G17U	0.24
G2A C13A U20C G21C C23G	0.09
G2A C15U G22A	0.5
G2A C18G G22U	0.81
G2A C18U C23A A26U	0.07
G2A C10G A24U U34C C42G	0.02
G2A G7A C10U	0.11
G2A C13G A16U U28C C37U	0.49
G2A C13G G17A G19A G27C	0.08
G2A C15U G17U G30U G36C	0.08
G2A C23G G33C A39C	0.02
G2A C10G G21A G30C C31U	0.02
G2A C15A G19U A39G	0.04
G2A C10A U32A A39C	0.05
G2A C15A U20G A26G G44A	0.21
G2A G5U A11U G17C G21A U28G G29A	0.02
G2A G5C U9G C45U	0.19
G2A C15A U34C A39U U43C	0.15
G2A C13U A39C C42G	0.02
